PubChem BioAssay AID1508624 (National Center for Advancing Translational Sciences (NCATS), 2021)
Where “and” joins values, the source holds several entries; their conditions need not be identical. Identical values can stand only once. Among all 48,000 compounds or so, about 120 (0.25%) were called active. Not shown: some 4% with an inconclusive outcome. Calls follow the shape of the dose curve; as a rule, active = well fitted activation curve with a large enough effect; inconclusive = small, poorly fitted or top-dose-only effect, or another doubt; inactive = no such curve, though single readings can be large or run the other way. The list shows a part of the results.

Test: Primary qHTS for Identification of Small Molecule Activators of Huntingtin-Antisense Promoter Activity; also: nearly all actives have a fitted effect of over 55% in size
Conditions: HEK293 HTT-AS promoter firefly luciferase reporter, 24 h
Source text: Assay Provider: Russell L. Margolis M.D.
Department Neurology, Johns Hopkins University School of Medicine, Baltimore, MD
Huntington's Disease (HD) is a neurodegenerative disorder caused by a CAG repeat expansion in exon 1 of huntingtin (HTT). While there are currently no disease-modifying treatments for HD, recent efforts have focused on development of nucleotide-based therapeutics to lower HTT expression. As an alternative to siRNA or oligonucleotide methods, we hypothesized that suppression of HTT expression might be accomplished by small molecules that either (1) directly decrease HTT expression by suppressing HTT promoter activity or (2) indirectly decrease HTT expression by increasing the promoter activity of HTT-AS, the gene antisense to HTT that appears to inhibit expression of HTT.
We developed and employed a high throughput screen for modifiers of HTT and HTT-AS promoter activity using luminescent reporter HEK293 cells; of the 52,041 compounds tested, we identified 898 replicable hits. We used a rigorous stepwise approach to assess compound toxicity and the capacity of the compounds to specifically lower huntingtin protein in 5 different cell lines, including HEK293 cells, HD lymphoblastoid cells, mouse primary neurons, HD iPSCs differentiated into cortical-like neurons, and HD hESCs. We found no compounds which were able to lower huntingtin without lowering cell viability in all assays, though the potential efficacy of a few compounds at non-toxic doses could not be excluded.
SEQUENCE No. (1, 2, 3, etc.); […] (e.g., Cells, Incubation, Reagent, etc.); VALUE and DESCRIPTION.
1; Reagent; 4 uL; 2,500 Hek293 luciferase reporter cells per wells
3; Compound; 23 nL; Control inhibitor / compound library
5; Reagent; 2.5 uL; Firefly Luc reagent; Dual-Glo Luciferase Reporter Assay System (Promega)
6; Time; 10 min; room temperature incubation
7; Detection; Luminescence; FLuc
NOTES (numbers refer to sequence above)
1; High-throughput screening, measuring luminescence from a Hek293 luciferase reporter, was performed in 1,536 well white-walled tissue-culture treated plates. 2,500 cells were plated in 4 µL of Opti-MEM per well using a Multidrop Combi Reagent Dispenser (ThermoFisher).
2; Assay plates were cultured for 24 hours.
3; Control inhibitor (PTC124; final concentration of 50 uM) and compound library (at final concentrations of 460 nM - 57.5 uM) were added to the assay plate using the Kalypsis Pintool Robotic System equipped with 1536 pinheads.
4; Cells were then incubated for 24 hours at 37 degrees C prior to luminescence measurements.
5; In all cases, luminescence was measured using the Dual-Glo Luciferase Reporter Assay System (Promega) following the manufacturer's instructions.
6; Room temperature incubation.
7; Luminescence signal was obtained using the PerkinElmer ViewLux plate reader. Results were normalized to vehicle control (0% activity) and zero RLU (-100% activity).

[1] = at 57.5 µM (top of the series) unless noted

In the case of `COP(=S)(OC)Oc1ccc(S(N)(=O)=O)cc1`, the activity change, positive = activation [1] is reported as inactive: 1.01%.
For `COc1cccc2c1C(=O)c1c(O)c3c(c(O)c1C2=O)C[C@@](O)(C(=O)CO)CC3OC1CC(N2CCOC(OC)C2)C(O)C(C)O1` (some centres not stated), the activity change, positive = activation [1] was inactive: -41.9%.
With `O=C(O)CCCCCCNC1c2ccccc2CCc2ccccc21` the activity change, positive = activation [1] was inactive: -9.32%.
For `CCOc1ccc(CN(CCc2ccc3c(c2)OCO3)Cc2ccc(OC)c(Br)c2)cc1`, the activity change, positive = activation [1] was inactive: -12.9% [at 57.5 µM, percent change from vehicle, -100% = no light].
With `CCOc1ccc2nc(NC(=O)c3cccn(Cc4ccccc4Cl)c3=O)sc2c1` the activity change, positive = activation [1] was inactive: -9.43% [at 57.5 µM, percent change from vehicle, -100% = no light].
For `Cc1nc2ccccc2c(=O)n1-c1ccccc1Cl`, the activity change, positive = activation [1] was inactive: -26.6% [at 116 µM].
For `Cc1ccccc1CN1C(=O)C(C)N=C(c2ccccc2)c2ccccc21` (configuration not stated), the activity change, positive = activation [1] was inactive: -27.2%.
For `CCN(CC)Cc1nccn1-c1ccc([N+](=O)[O-])cc1C(=O)c1ccccc1Cl`, the activity change, positive = activation [1] was inactive: -18.5%.
For `[N-]=[N+]=CC(=O)OC[C@H](N)C(=O)O`, the activity change, positive = activation [1] was inactive: -8.82%.
In the case of `CC1NCCOC1c1ccccc1` (configuration not stated), the activity change, positive = activation [1] is reported as inactive: -6.63%.
For `CCc1ccc(OCC(=O)N2CCN(CCc3ccncc3)CC2)cc1`, the activity change, positive = activation [1] was inactive: -15.9%.
For `CCCN1CCC[C@@H]2Cc3[nH]ncc3C[C@H]21`, the activity change, positive = activation [1] was inactive: -7.74%.
For `CCC(C)(C)c1ccc(O)cc1`, the activity change, positive = activation [1] was inactive: 3.16% [at 57.5 µM, percent change from vehicle, -100% = no light].
For `C#CC(O)(C=CCl)CC` (configuration not stated), the activity change, positive = activation [1] was inactive: -0.0368%.
In the case of `C[C@@H]1CC[C@H]2[C@@H](C)C(=O)O[C@@H]3O[C@@]4(C)CC[C@H]1[C@]32OO4`, the activity change, positive = activation [1] is reported as inactive: -15%.
In the case of `CCCN1CCO[C@@H]2c3cc(O)ccc3OC[C@@H]21`, the activity change, positive = activation [1] is reported as inactive: 1.71%.
In the case of `C[C@@H]1O[C@@H](O[C@H]2C[C@@H](O)[C@]3(CO)[C@H]4[C@H](O)C[C@]5(C)[C@@H](C6=CC(=O)OC6)CC[C@]5(O)[C@@H]4CC[C@]3(O)C2)[C@H](O)[C@H](O)[C@H]1O`, the activity change, positive = activation [1] is reported as inactive: -43.9%.
For `COc1cc(CCN)cc(OC)c1OC`, the activity change, positive = activation [1] was inactive: -6.55% [at 116 µM].
In the case of `C[C@@H](N)[C@@H](O)c1ccccc1`, the activity change, positive = activation [1] is reported as inactive: -1.78%.
For `ClC1=C(Cl)[C@]2(Cl)[C@@H]3[C@@H]4C[C@@H]([C@H]5O[C@@H]45)[C@@H]3[C@@]1(Cl)C2(Cl)Cl`, the activity change, positive = activation [1] was inactive: -14.2% [at 116 µM].
With `CCC1(c2ccc(N)cc2)CCC(=O)NC1=O` (configuration not stated) the activity change, positive = activation [1] was inactive: -5.37% and inactive: -16.4%.
For `Cc1ccc(C(=O)Nc2ccccc2)cc1S(=O)(=O)N1CCCC1`, the activity change, positive = activation [1] was inactive: 7%.
With `CNC(C)Cc1ccc2c(c1)OCO2` (configuration not stated) the activity change, positive = activation [1] was inactive: -4.47% [at 116 µM].
For `O=C(CCCCl)c1ccc(F)cc1`, the activity change, positive = activation [1] was inactive: 11.4%.
With `Cc1ccc(C(C)C)c(OCC(=O)N2CCN(CCc3ccncc3)CC2)c1` the activity change, positive = activation [1] was inactive: -6.85% [at 57.5 µM, percent change from vehicle, -100% = no light].
With `CN(C)C(=O)Oc1cc(OC(=O)N(C)C)cc(C(O)CNC(C)(C)C)c1` (configuration not stated) the activity change, positive = activation [1] was inactive: -19.2%.
With `NCCc1ccc(O)cc1` the activity change, positive = activation [1] was inactive: 0.336%.
In the case of `C[C@@H]1[C@H](O)[C@@H](C)C=CC=CCCC=CC=CC=CC=C[C@H](O[C@H]2O[C@@H](C)[C@H](O)[C@@H](N)[C@@H]2O)CC2O[C@](O)(C[C@@H](O)[C@H](O)CC[C@@H](O)C[C@@H](O)C[C@@H](O)CC(=O)O[C@H]1C)C[C@H](O)[C@H]2C(=O)O`, the activity change, positive = activation [1] is reported as inactive: -12%.
In the case of `COc1ccc(OCC(=O)N2CCN(Cc3cc(=O)n4nc(-c5ccc(OC)cc5)sc4n3)CC2)cc1`, the activity change, positive = activation [1] is reported as inactive: -18.1%.
In the case of `CC(C)c1ccc(OCC(=O)N2CCN(CCc3ccccn3)CC2)cc1`, the activity change, positive = activation [1] is reported as inactive: 2.56% [at 11.5 µM, percent change from vehicle, -100% = no light].
In the case of `Cc1ccc(OCC(=O)N2CCN(CCc3ccncc3)CC2)cc1`, the activity change, positive = activation [1] is reported as inactive: -0.521%.
For `COc1ccc(OCC(=O)N2CCN(Cc3ccc(SC)cc3)CC2)cc1`, the activity change, positive = activation [1] was inactive: -60.1%.
With `COc1ccc2c(c[n+](C)c3c4cc5c(cc4ccc23)OCO5)c1OC` the activity change, positive = activation [1] was inactive: -42.6%.
For `O=C(O)c1ccc2[nH]cc(CCCCN3CC=C(c4ccccc4)CC3)c2c1`, the activity change, positive = activation [1] was inactive: -11.5%.
In the case of `Cc1ccccc1-n1c(/C=C/c2ccc(N(C)C)cc2)nc2ccccc2c1=O`, the activity change, positive = activation [1] is reported as inactive: -20.4%.
In the case of `O=C(c1ccc2c(c1)N(Cc1ccc(F)cc1)C(=O)c1ccccc1S2)N1CCC2(CC1)OCCO2`, the activity change, positive = activation [1] is reported as inactive: -21.1%.
With `O=[N+]([O-])c1cc([As](=O)(O)O)ccc1O` the activity change, positive = activation [1] was inactive: -3.85%.
With `CC[C@@H]1[C@@H](C)O[C@@](O)([C@@H](C)[C@H](O)[C@H](C)[C@H]2OC(=O)C=CC=C[C@@H](C)[C@@H]([C@@H](C)[C@@H](O)[C@H](C)[C@@]3(O)C[C@H](O[C@H]4C[C@H](O)[C@H](O)[C@H](C)O4)[C@H](CC)[C@@H](C)O3)OC(=O)C=CC=C[C@@H]2C)C[C@H]1O[C@H]1C[C@H](O)[C@H](O)[C@H](C)O1` the activity change, positive = activation [1] was inactive: -93.9%.
In the case of `Cc1nnc(NC(=O)c2cccn(Cc3cccc(F)c3)c2=O)s1`, the activity change, positive = activation [1] is reported as inactive: 2.56% [at 57.5 µM, percent change from vehicle, -100% = no light].
For `O=c1oc2ccccc2c(O)c1Cc1c(O)c2ccccc2oc1=O`, the activity change, positive = activation [1] was inactive: -20%.
With `Cc1ccc(OCC(=O)Nc2ccc(Cl)cc2C(=O)c2ccccc2)cc1C` the activity change, positive = activation [1] was inactive: 0.264%.
In the case of `CC1N=C(N)OC1c1ccccc1` (configuration not stated), the activity change, positive = activation [1] is reported as inactive: -4.19% [at 116 µM].
With `O=c1[nH]c2ccccc2n1C1CCN(Cc2ccc(-c3[nH]c4cc5ncnc5cc4nc3-c3ccccc3)cc2)CC1` the activity change, positive = activation [1] was inactive: -3.34%.
For `COc1cccc(-c2nn3c(=O)cc(CN4CCN(C(=O)COc5ccccc5C)CC4)nc3s2)c1`, the activity change, positive = activation [1] was inactive: -3.97%.
In the case of `CCCCCCCCc1ccc(O)cc1`, the activity change, positive = activation [1] is reported as inactive: 6.24% [at 116 µM].
With `Oc1cc(Cl)ccc1Oc1ccc(Cl)cc1Cl` the activity change, positive = activation (at 57.5 µM (top of the series)) was inactive: -35.2% and the activity change, positive = activation (at 116 µM (top of the series)) was inactive: -59.6%.
